The campaign covered roughly 220,000 compounds. About 16,000 (7.3%) were called active. Inconclusive means that the source gave no clear call. Such entries were picked first, then a sample of the others. Calls come from the whole dose curve; as a rule, active = well fitted inhibition curve with a large enough effect (not every such curve was filed as active); inconclusive = small, poorly fitted or top-dose-only effect, or another doubt; inactive = no such curve, though single readings can be large or run the other way. No potency is given beside an inconclusive call; the fits are too rough.
target: Aldehyde dehydrogenase 1A1 (Homo sapiens) (UniProt P00352); experiment: qHTS Assay for Inhibitors of Aldehyde Dehydrogenase 1 (ALDH1A1); conditions: Purified ALDH1A1, NADH fluorescence, propionaldehyde substrate; series mostly up to 75.3 µM; activity, negative = inhibition: at the top concentration;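 for activity, negative = inhibition: plate controls were no enzyme wells and a reference inhibitor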
Potency is the fitted concentration of half-maximal effect; tags give direction and shape of the fitted curve.

UniProt P00352, sequence (P00352 whole entry, looked up): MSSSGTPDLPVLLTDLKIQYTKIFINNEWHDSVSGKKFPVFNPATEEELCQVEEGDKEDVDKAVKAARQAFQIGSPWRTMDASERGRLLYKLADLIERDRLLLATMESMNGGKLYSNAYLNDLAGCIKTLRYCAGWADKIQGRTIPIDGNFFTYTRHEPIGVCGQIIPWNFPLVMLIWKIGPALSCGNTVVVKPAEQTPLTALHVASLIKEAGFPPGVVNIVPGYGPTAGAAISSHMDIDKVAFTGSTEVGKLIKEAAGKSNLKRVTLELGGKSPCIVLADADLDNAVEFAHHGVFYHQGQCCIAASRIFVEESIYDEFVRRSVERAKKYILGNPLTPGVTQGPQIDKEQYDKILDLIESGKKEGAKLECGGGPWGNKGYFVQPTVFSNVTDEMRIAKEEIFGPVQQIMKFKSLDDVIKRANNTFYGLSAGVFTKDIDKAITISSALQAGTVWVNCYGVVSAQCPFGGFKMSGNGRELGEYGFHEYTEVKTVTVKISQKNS

**Q.** For `CS(=O)(=O)n1nc(OC(=O)c2cc(Br)ccc2Cl)cc1N`, which “activity, negative = inhibition” value is on record?
**A.** inactive: -4.21%

**Q.** For `O=C(COc1ccc(/C=N/NS(=O)(=O)c2ccccc2)cc1)Nc1ccc(F)cc1`, which “activity, negative = inhibition” value is on record?
**A.** inactive: -2.93%

**Q.** Which “activity, negative = inhibition” value does the source give for `O=[N+]([O-])c1cccnc1NCCc1ccccc1` here?
**A.** inactive: 0.436%

**Q.** With `O=C1CC(Sc2cccs2)C(=O)N1c1ccccc1` (configuration not stated) as the compound, how does the Potency read?
**A.** active: 12.6 µM

**Q.** `CC(=O)Nc1ccc(OC(=O)c2cccs2)cc1` was tested. Which Potency did it give?
**A.** inconclusive [inhibitor, single point]

**Q.** `Cc1cccc(C(=O)N2CCN(c3ccc([N+](=O)[O-])c(N4CCOCC4)c3)CC2)c1` was tested. Which Potency did it give?
**A.** active: 5.01 µM

**Q.** For `COc1ccc(-c2nc3cc(NC(=O)Cc4ccc(OC)c(OC)c4)ccc3o2)cc1`, which Potency is on record?
**A.** inconclusive [inhibitor, partial curve]

**Q.** Which Potency does the source give for `COc1ccc(N2CCN(Cc3cc(=O)oc4cc5c(cc34)CCCC5)CC2)cc1` here?
**A.** inconclusive [inhibitor, single point]

**Q.** How did the Potency turn out when `N#CCCn1c(=O)c(-c2ccccc2)nc2cnc(OCc3ccccc3)nc21` was run?
**A.** inconclusive [inhibitor, partial curve]

**Q.** For `Cc1cccc(NC(=S)N(CCN2CCOCC2)Cc2ccccc2F)c1`, which “activity, negative = inhibition” value is on record?
**A.** inactive: -15.8%

**Q.** How did the Potency turn out when `CO/N=C/C(=N\Nc1ccccc1)C(=O)c1ccccc1` was run?
**A.** inconclusive [inhibitor, single point]

**Q.** `O=Cc1ccc(OC2C=CC(c3ccccc3)OC2CO)cc1` (configuration not stated) was tested. Which Potency did it give?
**A.** inconclusive [inhibitor, single point]

**Q.** For `Cc1cccc(N2CCN(C(=O)COc3cc(=O)n(C)c4ccccc34)CC2)c1C`, which Potency is on record?
**A.** inconclusive [inhibitor, single point]

**Q.** Which Potency does the source give for `CCn1ccnc1CN1CCCC(C(=O)c2ccc3c4c(cccc24)CC3)C1` (configuration not stated) here?
**A.** inconclusive [inhibitor, partial curve]

**Q.** Which Potency does the source give for `CCC1Oc2ccc(C)cc2N(CC(=O)NCc2ccco2)C1=O` (configuration not stated) here?
**A.** inconclusive [inhibitor, single point]

**Q.** How did the Potency turn out when `COc1ccc(CNC(=O)c2c(C)oc3c2C(=O)c2ccccc2C3=O)cc1` was run?
**A.** inconclusive [inhibitor, single point]

**Q.** With `COc1cc(NCCC(=O)O)c2ncccc2c1` as the compound, how does the activity, negative = inhibition read?
**A.** inactive: 22.4% [at 13.5 µM]

**Q.** How did the Potency turn out when `COC(=O)c1ccc(C2C(C(=O)c3cc4ccccc4o3)=C(O)C(=O)N2CCCN(C)C)cc1` (configuration not stated) was run?
**A.** inconclusive [inhibitor, single point]

**Q.** For `CCCCc1nnc(NC(=O)CSc2nc(O)c(Cc3ccccc3)c(=O)[nH]2)s1`, which Potency is on record?
**A.** inconclusive [inhibitor, single point]

**Q.** Which “activity, negative = inhibition” value does the source give for `CCc1nnc(NC(=O)C2CCN(S(=O)(=O)c3ccc(C)cc3)CC2)s1` here?
**A.** inactive: 11.9%

**Q.** `COc1ccc(OC)c(C2C(C#N)=C(N)Oc3cc(N)ccc32)c1` (configuration not stated) was tested. Which Potency did it give?
**A.** active: 11.2 µM

**Q.** For `Cc1cc2c(c(=O)o1)C(CC(C)C)C(C#N)=C(N)O2` (configuration not stated), which Potency is on record?
**A.** inconclusive [inhibitor, single point]

**Q.** How did the Potency turn out when `COC(=O)CN1C(=S)N(c2ccc(F)cc2)C(=O)C1CC(=O)Nc1ccccc1` (configuration not stated) was run?
**A.** inconclusive [inhibitor, partial curve]

**Q.** `N#Cc1c(N2CCOCC2)nc(N2CCCCC2)c2c1CCN(C1CCCCC1)C2` was tested. Which Potency did it give?
**A.** inconclusive [inhibitor, single point]

**Q.** `O=C(Oc1ccccc1/C=C\C(=O)c1cc2ccccc2o1)c1cccc(F)c1` was tested. Which Potency did it give?
**A.** active: 8.91 µM

**Q.** With `N#C/C(=C/c1ccc(Br)o1)C(N)=O` as the compound, how does the “activity, negative = inhibition” value read?
**A.** inactive: -7.03%

**Q.** Which “activity, negative = inhibition” value does the source give for `C/C(N)=C(/C#N)C(=O)CSc1nc2ccccc2c(=O)n1Cc1ccc(F)cc1` here?
**A.** inactive: 0.494%

**Q.** For `O=C(CCCCCNc1nc(=S)[nH]c2ccccc12)NCCC1=CCCCC1`, which “activity, negative = inhibition” value is on record?
**A.** inactive: 1.57%

**Q.** `CC(=O)Nc1ccc(OCC(O)CN2CCCCC2C)cc1` (configuration not stated) was tested. Which “activity, negative = inhibition” value did it give?
**A.** inactive: 4.04%

**Q.** How did the Potency turn out when `CCCCC/C=N/NC(=O)c1[nH]c2ccc([N+](=O)[O-])cc2c1C` was run?
**A.** inconclusive [inhibitor, partial curve]

**Q.** Which Potency does the source give for `COc1ccc(CC(=O)NC(C)c2nnc(SCC(=O)c3ccc(Br)cc3)n2C)cc1` (configuration not stated) here?
**A.** inconclusive [inhibitor, single point]

**Q.** `C=CCN1C(=O)C(Cc2ccc(Br)cc2)S/C1=N\N=C\c1ccco1` (configuration not stated) was tested. Which Potency did it give?
**A.** inconclusive [inhibitor, partial curve]

**Q.** How did the Potency turn out when `Cc1ccc(NS(=O)(=O)c2cccc([N+](=O)[O-])c2)nc1` was run?
**A.** active: 11.2 µM

**Q.** Which “activity, negative = inhibition” value does the source give for `NC(=O)C1=C[C@H](c2coc3ccccc3c2=O)C[C@H](OCc2ccc(CO)cc2)O1` here?
**A.** inactive: 2.21%

**Q.** `Cc1cc(F)ccc1NCc1cc2c(cc1[N+](=O)[O-])OCO2` was tested. Which Potency did it give?
**A.** active: 11.2 µM

**Q.** With `Cc1ccccc1C1(CCN2CCCCC2)CCOC(C)(C)C1` (configuration not stated) as the compound, how does the “activity, negative = inhibition” value read?
**A.** inactive: 9.03%

**Q.** For `O=C(Nc1ccccc1)N1CCCC2(CCN(C(=O)c3cccc(F)c3)CC2)C1`, which “activity, negative = inhibition” value is on record?
**A.** inactive: -0.602%

**Q.** How did the Potency turn out when `CCn1cc(C(=O)NCC2CCCO2)c(=O)c2cc(F)c(N3CCN(C)CC3)cc21` (configuration not stated) was run?
**A.** inconclusive [inhibitor, partial curve]

**Q.** With `COc1ccc(/C=C/C(=O)NCCN2CCOCC2)cc1OC` as the compound, how does the Potency read?
**A.** inconclusive [inhibitor, single point]

**Q.** For `O=c1cnc2cnc(N3CCOCC3)nc2n1C1CC1`, which “activity, negative = inhibition” value is on record?
**A.** inactive: -1.77%

**Q.** Which Potency does the source give for `CC(=O)CC1(O)C(=O)N(Cc2ccccc2)c2ccccc21` (configuration not stated) here?
**A.** inconclusive [inhibitor, single point]

**Q.** Which Potency does the source give for `CCCCCNC(=O)c1ccc2c(=O)n(CCOC)c(=O)[nH]c2c1` here?
**A.** inconclusive [inhibitor, single point]

**Q.** How did the Potency turn out when `O=C1C=C(c2ccccc2)CC(/C=C/c2ccccc2)C1` (configuration not stated) was run?
**A.** inconclusive [inhibitor, partial curve]

**Q.** For `CCCC(C)NC(=O)CSc1nnc2ccccn12` (configuration not stated), which “activity, negative = inhibition” value is on record?
**A.** inactive: -6.82%

**Q.** How did the Potency turn out when `CSC(=NC#N)N1CCN(c2ccc([N+](=O)[O-])cc2)CC1` was run?
**A.** active: 17.8 µM

**Q.** For `CC(=O)N1CCC2(CCN(Cc3ccc(C#N)cc3)CC2)CC1`, which “activity, negative = inhibition” value is on record?
**A.** inactive: 6.62%

**Q.** Which Potency does the source give for `CC(=O)N1CCCc2cc(S(=O)(=O)N3CCN(c4ccccn4)CC3)ccc21` here?
**A.** inconclusive [inhibitor, partial curve]

**Q.** How did the Potency turn out when `Cc1cccc(N2CCN(C(=O)n3ccnc3)CC2)c1C` was run?
**A.** inconclusive [inhibitor, single point]

**Q.** How did the Potency turn out when `O=C(Nc1cccn(Cc2ccccc2Cl)c1=O)NC1CCCCC1` was run?
**A.** inconclusive [inhibitor, partial curve]

**Q.** For `O=S(=O)(c1ccccc1)N1CCN=C1SCc1ccccc1`, which Potency is on record?
**A.** inconclusive [inhibitor, single point]

**Q.** `COC(=O)c1cc(COc2ccc3c4c(c(=O)oc3c2)CCCC4)c(C)o1` was tested. Which Potency did it give?
**A.** inconclusive [inhibitor, partial curve]

**Q.** `COc1cccc(N/C(C)=C/C(=O)c2ccc(Br)cc2)c1` was tested. Which Potency did it give?
**A.** inconclusive [inhibitor, single point]

**Q.** For `CN1CCN(c2ccccc2NC(=O)c2ccc([N+](=O)[O-])cc2Cl)CC1`, which “activity, negative = inhibition” value is on record?
**A.** inactive: -2.09%

**Q.** `COc1cccc(NC(=O)CSc2nc3n[nH]c(C)c3c(=N)n2-c2cccc(OC)c2)c1` was tested. Which Potency did it give?
**A.** inconclusive [inhibitor, single point]

**Q.** With `O=C1[C@@H]2[C@H]3[C@H](O)[C@H](O)C/C(=N/OC[C@@H](O)COCc4ccco4)[C@H]3CC[C@H]2C(=O)N1c1ccc(F)cc1F` as the compound, how does the activity, negative = inhibition read?
**A.** inactive: 4.63% [at 13.5 µM]

**Q.** `CCCCN1CC[C@@H]2C=CC[C@H](C(=O)OC)[C@@H]2C1=O` was tested. Which “activity, negative = inhibition” value did it give?
**A.** inactive: -0.559% [at 120 µM]

**Q.** With `NC(=O)c1nn(-c2ccccc2)nc1NC(=O)Cn1nnc(-c2ccccc2)n1` as the compound, how does the Potency read?
**A.** inconclusive [inhibitor, single point]

**Q.** With `COc1cc(SC#N)ccc1N=Cc1c(C)[nH]n(-c2cccc3ccccc23)c1=O` as the compound, how does the Potency read?
**A.** active: 0.447 µM

**Q.** `Cc1ccc2nc(SCC(=O)Nc3ccc(C(N)=O)cc3)[nH]c2c1` was tested. Which Potency did it give?
**A.** inconclusive [inhibitor, single point]

**Q.** With `COc1ccc([N+](=O)[O-])cc1N/C(=N/S(=O)(=O)c1ccccc1)c1ccccc1` as the compound, how does the Potency read?
**A.** inconclusive [inhibitor, single point]

**Q.** For `CC(=O)Nc1ccc(C(=O)Nc2ccc(S(=O)(=O)N3CCCC3)cc2)cc1`, which Potency is on record?
**A.** inconclusive [inhibitor, single point]

**Q.** `C/C(=N\NC(=O)C1COc2ccccc2O1)c1ccccn1` (configuration not stated) was tested. Which Potency did it give?
**A.** inconclusive [inhibitor, single point]

**Q.** How did the Potency turn out when `CCCCCC(O)(CCN1CCCCC1)c1ccc(OCC)cc1` (configuration not stated) was run?
**A.** active: 1.78 µM

**Q.** Which Potency does the source give for `CNC(=O)COC(=O)c1ccc(NC(=O)CC#N)cc1` here?
**A.** inconclusive [inhibitor, partial curve]

**Q.** For `CN(c1ccccc1)S(=O)(=O)c1ccc(C(=O)OCC(=O)NCc2ccco2)cc1`, which Potency is on record?
**A.** inconclusive [inhibitor, single point]

**Q.** `CCOC(=O)c1nc(C)sc1-c1ccnn1S(=O)(=O)c1cccc(Cl)c1` was tested. Which Potency did it give?
**A.** inconclusive [inhibitor, single point]

**Q.** How did the Potency turn out when `Cc1cc(NCCN2CCOCC2)n2c(nc3ccccc32)c1C#N` was run?
**A.** inconclusive [inhibitor, partial curve]

**Q.** Which Potency does the source give for `CCN1C/C(=C\c2cccc([N+](=O)[O-])c2)C(=O)/C(=C/c2cccc([N+](=O)[O-])c2)C1` here?
**A.** inconclusive [inhibitor, full curve]

**Q.** Which Potency does the source give for `COc1ccccc1CNC(=O)Cc1ccc(Br)cc1` here?
**A.** inconclusive [inhibitor, single point]

**Q.** How did the Potency turn out when `Cc1ccsc1/C=N/n1c(COc2ccccc2)n[nH]c1=S` was run?
**A.** active: 20 µM

**Q.** Which Potency does the source give for `O=C(O)CSCC(=O)Nc1ccc(-c2nc3ccccc3s2)cc1` here?
**A.** inconclusive [inhibitor, partial curve]

**Q.** Which Potency does the source give for `COc1ccc(OC)c(NC(=O)c2ccccc2NS(=O)(=O)c2cccc3cccnc23)c1` here?
**A.** inconclusive [inhibitor, partial curve]
